Experimental data as given in article PMC545490, “Mapping and mutation of the conserved DNA polymerase interaction motif (DPIM) located in the C-terminal domain of fission yeast DNA polymerase δ subunit Cdc27” (BMC Molecular Biology, 2004).
Results are given in words; binding and its absence hold for the method and conditions named. Some results given as binding are weak or reduced against the parent protein; the word gives no strength. Where a sequence is shown, tags or fusion partners need not be part of it.

The chains behind the UniProt entries cited, without tags or fusion partners. Residues count along the entry.
UniProt P09884, residues 291-540: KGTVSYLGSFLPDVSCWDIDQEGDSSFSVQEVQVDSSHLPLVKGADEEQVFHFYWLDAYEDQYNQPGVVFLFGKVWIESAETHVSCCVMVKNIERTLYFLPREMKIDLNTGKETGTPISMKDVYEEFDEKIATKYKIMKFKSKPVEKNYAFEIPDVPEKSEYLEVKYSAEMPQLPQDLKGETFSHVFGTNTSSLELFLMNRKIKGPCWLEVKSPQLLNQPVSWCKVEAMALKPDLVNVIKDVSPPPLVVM

Assays:
Test in all cases: two-hybrid; Gal4 AD prey (pACT2) and LexA bait (pBTM116) in S. cerevisiae lexA op-lacZ strain CTY10-5d; β-galactosidase activity in Miller units
[1] = target: LexA fusion of amino acids 291–540 of the human Pol α catalytic subunit (human) (UniProt P09884)
[2] = target: T1, LexA-Pol1(278–477) (S. pombe) (UniProt P28040)
T1 sequence: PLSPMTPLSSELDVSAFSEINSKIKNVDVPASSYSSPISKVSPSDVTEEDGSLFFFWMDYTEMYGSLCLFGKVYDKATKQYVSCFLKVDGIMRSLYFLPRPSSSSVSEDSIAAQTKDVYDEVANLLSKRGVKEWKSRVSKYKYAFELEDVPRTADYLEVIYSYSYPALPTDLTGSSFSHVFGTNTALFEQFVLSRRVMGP

[3] = target: T2, LexA-Pol1(278–487) (S. pombe) (UniProt P28040)
T2 sequence: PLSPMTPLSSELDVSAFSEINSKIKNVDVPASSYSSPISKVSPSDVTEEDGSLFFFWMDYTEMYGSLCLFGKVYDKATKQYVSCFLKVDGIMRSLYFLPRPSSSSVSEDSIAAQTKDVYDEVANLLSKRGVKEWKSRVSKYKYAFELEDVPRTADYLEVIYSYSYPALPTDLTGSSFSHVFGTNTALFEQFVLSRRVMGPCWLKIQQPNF

[4] = target: T3, LexA-Pol1(278–497) (S. pombe) (UniProt P28040)
T3 sequence: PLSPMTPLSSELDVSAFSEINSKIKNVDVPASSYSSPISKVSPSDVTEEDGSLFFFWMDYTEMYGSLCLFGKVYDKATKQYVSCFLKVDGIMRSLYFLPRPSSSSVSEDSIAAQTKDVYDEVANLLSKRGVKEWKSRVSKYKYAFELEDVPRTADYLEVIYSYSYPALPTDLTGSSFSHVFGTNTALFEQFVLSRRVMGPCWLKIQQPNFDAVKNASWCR

[5] = target: T4, LexA-Pol1(278–507) (S. pombe) (UniProt P28040)
T4 sequence: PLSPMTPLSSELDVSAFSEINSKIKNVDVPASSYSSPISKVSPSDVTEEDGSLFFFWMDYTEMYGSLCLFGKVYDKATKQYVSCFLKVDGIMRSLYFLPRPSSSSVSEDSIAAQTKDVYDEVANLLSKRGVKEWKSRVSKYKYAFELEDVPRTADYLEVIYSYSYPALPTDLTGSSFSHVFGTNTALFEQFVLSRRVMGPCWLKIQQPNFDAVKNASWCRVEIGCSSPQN

LexA-Pol1-278-527 = target: T5, LexA-Pol1-278-527 (S. pombe, UniProt P28040 278-527)
T5 construct: Pol1, catalytic subunit of DNA polymerase α, S. pombe, amino acids 278–527; source: yeast two-hybrid fusion (pBTM116, S. cerevisiae CTY10-5d)
T5 sequence (looked up): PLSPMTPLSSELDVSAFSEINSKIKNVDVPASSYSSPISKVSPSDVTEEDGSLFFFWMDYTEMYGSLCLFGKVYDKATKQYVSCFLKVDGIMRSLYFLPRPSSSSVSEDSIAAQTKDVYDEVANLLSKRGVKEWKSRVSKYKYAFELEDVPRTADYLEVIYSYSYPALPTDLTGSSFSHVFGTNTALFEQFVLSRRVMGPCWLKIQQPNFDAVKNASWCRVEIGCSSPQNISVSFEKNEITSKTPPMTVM

binding [1]: no binding | binding [2]: no binding | binding [3]: no binding | binding [4]: no binding | binding [5]: no binding | binding (LexA-Pol1-278-527): binds
B1: Full-length Cdc27 fused to the activation domain (AD) of the yeast Gal4 protein (protein, UniProt P30261 1-372)
chain: MEEWRNFLDIKVINESSLVTVDNLSLQLDISSEKAQEYLNMFYQGNDFLYPIYLIHGQPIDDEINLEIDEESQPISNFPVLQYILCDKSSLQEKQSRLKSGYKTVIFALSSAPLSDFDELLPAVYEIREKDVLYKKEDADKYGFIFNENSVPRVLKKAPSTHSPQLSVPSKTSTIDKTDTRSTEKTKGKDIFSNARNQKGNSSRKNKKAPLENHKEKEPLLPKEEKLSEQAKRERDDLKNIMQLEDESVSTTSVHDSEDDNLDSNNFQLEIGTEAKSAAPDEPQEIIKSVSGGKRRGKRKVKKYATTKDEEGFLVTKEEEVWESFSEDENISTGTSNVVRNKPTTVNIATKKKNTAQSKPQQKSIMSFFGKK
